Results on 195 variants are retold here after a collection of fitness landscapes (doi:10.1016/j.celrep.2020.107928).

Over roughly 81,000 sequences, “one-hybrid fitness for binding parS DNA” has its median near -0.17; the highest 2% begin near 0.51. Some of the results follow.

B1: Caulobacter ParB omega fusion; a variant is named by its letters at X, in order, B8GW30 (parent)
chain: MESVVVGEPGMSEGRRGLGRGLSALLGEVDAAPAQAPGEQLGGSREAPIEILQRNPDQPRRTFREEDLEDLSNSIREKGVLQPILVRPSPDTAGEYQIVAGERAWRAAQRAGLKTVPIMVRELDDLAVLEIGIIENVQRADLNVLEEALSYKVLMEKFERTQENIAQTIGKSXSHVANXMRLLXLPDEVQSYLVSGELTAXHARAIAAAADPVALAKQIIEGGLSVRETEALARKAPNLSAGKSKGGRPPRVKDTDTQALESDLSSVLGLDVSIDHRGSTGTLTITYATLEQLDDLCNRLTRGI

Variants of B1 are the subject of this assay. Description: one-hybrid fitness for binding parS DNA (scaled: cognate 1, non-cognate 0); higher = stronger binding. Conditions: with parS DNA site. In outline:
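On M9-minus-histidine containing 0.1 mM IPTG and 5 mM 3-AT, E. coli USO cells with a HIS3 reporter, site 19 bp from the promoter, grew 48 hours at 37°C to select Caulobacter ParB libraries randomised at four specificity codons. Plasmids from before and after were Illumina-sequenced, with three replicate libraries pooled and variants under 10 reads left out. Fitness is the log change in variant-to-wild-type read ratio, rescaled against cognate and non-cognate.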
ATSG: the “one-hybrid fitness for binding parS DNA” value is at most 0.2.
In the case of HGFG it was at most 0.2.
PHKS: the “one-hybrid fitness for binding parS DNA” value was at most 0.2.
With DATR, the “one-hybrid fitness for binding parS DNA” value was at most 0.2.
ADAS: the “one-hybrid fitness for binding parS DNA” value was at most 0.2.
Consider SGPV, for which the “one-hybrid fitness for binding parS DNA” value was at most 0.2.
In the case of QEVF, the “one-hybrid fitness for binding parS DNA” value is at most 0.2.
In the case of PKIK it was at most 0.2; in that of LMLS, at most 0.2; in that of NSYC, at most 0.2.
In the case of DTGA it was at most 0.2; in that of HKAN, at most 0.2.
In the case of VGPV it was at most 0.2; in that of KRHF, at most 0.2; in that of QKSH, at most 0.2.
For the variant QHRG, the “one-hybrid fitness for binding parS DNA” value is at most 0.2.
In the case of LTSS it was at most 0.2; in that of REGS, at most 0.2.
In the case of QAFY it was at most 0.2; in that of SIPS, at most 0.2.
Turning to CMVS, the “one-hybrid fitness for binding parS DNA” value is at most 0.2.
Turning to ESSH, the “one-hybrid fitness for binding parS DNA” value was at most 0.2.
In the case of ATPV it was at most 0.2.
QKSA: the “one-hybrid fitness for binding parS DNA” value was at most 0.2.
In the case of QCIN it was at most 0.2; in that of DLDN, at most 0.2.
In the case of CRIF it was at most 0.2; in that of HAHY, at most 0.2; in that of TSMT, at most 0.2.
As for VFRS, the “one-hybrid fitness for binding parS DNA” value is at most 0.2.
In the case of ASNK it was at most 0.2.
In the case of KNRA it was at most 0.2; in that of RMDV, at most 0.2; in that of PTQR, at most 0.2.
Regarding LTGG, the “one-hybrid fitness for binding parS DNA” value is at most 0.2.
In the case of DLLL it was at most 0.2; in that of SGHG, at most 0.2; in that of QAVP, at most 0.2.
In the case of VNLP it was at most 0.2.
For the variant FLKR, the “one-hybrid fitness for binding parS DNA” value is at most 0.2.
In the case of KACS it was at most 0.2; in that of RCVA, 0.581; in that of QRHR, at most 0.2.
In the case of PAGS it was at most 0.2; in that of WGFL, at most 0.2.
In the case of NFMA it was at most 0.2.
Turning to LCTG, the “one-hybrid fitness for binding parS DNA” value is at most 0.2.
In the case of MMQY it was at most 0.2; in that of ERNE, at most 0.2; in that of YVAF, at most 0.2.
Consider KQVG, for which the “one-hybrid fitness for binding parS DNA” value is at most 0.2.
In the case of AGLG it was at most 0.2; in that of IYPG, at most 0.2.
In the case of SWPD it was at most 0.2; in that of EKNI, at most 0.2; in that of ESYW, at most 0.2.
YAYY: the “one-hybrid fitness for binding parS DNA” value was at most 0.2.
As for PVKT, the “one-hybrid fitness for binding parS DNA” value was at most 0.2.
In the case of SMWS it was at most 0.2; in that of RKTH, at most 0.2; in that of IPVQ, at most 0.2.
Consider QGLH, for which the “one-hybrid fitness for binding parS DNA” value is at most 0.2.
Take KWNG: the “one-hybrid fitness for binding parS DNA” value is at most 0.2.
In the case of SPPG it was at most 0.2; in that of RAWE, at most 0.2; in that of VQRT, at most 0.2.
In the case of LMHS it was at most 0.2.
As to YGSE, the “one-hybrid fitness for binding parS DNA” value is at most 0.2.
In the case of RWVY it was at most 0.2; in that of HKSW, at most 0.2; in that of KECK, at most 0.2.
Take GILA: the “one-hybrid fitness for binding parS DNA” value was at most 0.2.
As to TMEV, the “one-hybrid fitness for binding parS DNA” value is at most 0.2.
Consider KGQG, for which the “one-hybrid fitness for binding parS DNA” value is at most 0.2.
With GLTM, the “one-hybrid fitness for binding parS DNA” value was at most 0.2.
In the case of IPQR it was at most 0.2; in that of LTEA, at most 0.2; in that of NVPD, at most 0.2.
In the case of ESLS it was at most 0.2; in that of TENQ, at most 0.2.
PTRY: the “one-hybrid fitness for binding parS DNA” value is at most 0.2.
On to NRFR, for which the “one-hybrid fitness for binding parS DNA” value is at most 0.2.
For TGHV, the “one-hybrid fitness for binding parS DNA” value was at most 0.2.
In the case of VEHM it was at most 0.2.
As for EYWT, the “one-hybrid fitness for binding parS DNA” value is at most 0.2.
In the case of RGLI it was at most 0.2; in that of YKSG, at most 0.2; in that of GSPH, at most 0.2.
In the case of YMYN it was at most 0.2; in that of NRSA, at most 0.2; in that of QWNK, at most 0.2.
As to QSSY, the “one-hybrid fitness for binding parS DNA” value is at most 0.2.
In the case of DKLC it was at most 0.2; in that of WGPS, at most 0.2; in that of CWRC, at most 0.2.
In the case of RMWK it was at most 0.2; in that of LMWG, at most 0.2; in that of SHDR, at most 0.2.
With NDDD, the “one-hybrid fitness for binding parS DNA” value is at most 0.2.
In the case of KPNF it was 0.212; in that of LALT, at most 0.2; in that of FHAA, at most 0.2.
Turning to HKTI, the “one-hybrid fitness for binding parS DNA” value was at most 0.2.
In the case of YISG it was at most 0.2.
For GPLH, the “one-hybrid fitness for binding parS DNA” value is at most 0.2.
In the case of HAPW it was at most 0.2; in that of WSLG, at most 0.2.
In the case of RVQY it was 0.466; in that of QGNC, at most 0.2; in that of QSNK, at most 0.2.
In the case of QDVS it was at most 0.2; in that of ATQA, at most 0.2; in that of ELSL, at most 0.2.
Turning to KAYL, the “one-hybrid fitness for binding parS DNA” value is at most 0.2.
For the variant SLMR, the “one-hybrid fitness for binding parS DNA” value was at most 0.2.
As to TPLH, the “one-hybrid fitness for binding parS DNA” value was at most 0.2.
Regarding QVYR, the “one-hybrid fitness for binding parS DNA” value is at most 0.2.
In the case of KKQT it was at most 0.2; in that of LANL, at most 0.2; in that of QGYI, at most 0.2.
In the case of LLQV it was at most 0.2.
In the case of PHHE it was at most 0.2; in that of IKRF, at most 0.2; in that of DVPY, at most 0.2.
With MPPR, the “one-hybrid fitness for binding parS DNA” value is at most 0.2.
In the case of SLHK it was at most 0.2; in that of GTPK, at most 0.2; in that of PDLF, at most 0.2.
Regarding TGRC, the “one-hybrid fitness for binding parS DNA” value was at most 0.2.
In the case of AQVC it was at most 0.2; in that of HGSK, at most 0.2.
In the case of MVRR, the “one-hybrid fitness for binding parS DNA” value is at most 0.2.
In the case of VLTA it was at most 0.2.
In the case of AQLW it was at most 0.2; in that of YMWY, at most 0.2.
In the case of LQWQ it was at most 0.2; in that of EALE, at most 0.2; in that of WNKI, at most 0.2.
Regarding LWLW, the “one-hybrid fitness for binding parS DNA” value was at most 0.2.
On to VVIS, for which the “one-hybrid fitness for binding parS DNA” value was at most 0.2.
In the case of YSDC it was at most 0.2; in that of KSNI, at most 0.2.
As for VDVS, the “one-hybrid fitness for binding parS DNA” value was at most 0.2.
On to PHYV, for which the “one-hybrid fitness for binding parS DNA” value is at most 0.2.
In the case of SGTK it was at most 0.2; in that of ARDF, at most 0.2; in that of SKYI, at most 0.2.
In the case of QLIH it was at most 0.2.
In the case of ALRS it was at most 0.2.
For the variant MMWA, the “one-hybrid fitness for binding parS DNA” value is at most 0.2.
In the case of QDIG it was at most 0.2.
In the case of MKLF it was at most 0.2.
In the case of LAWV it was at most 0.2; in that of FPAR, at most 0.2.
With VYRC, the “one-hybrid fitness for binding parS DNA” value was at most 0.2.
In the case of MMRG it was at most 0.2.
In the case of QQVH it was at most 0.2.
In the case of YENC it was at most 0.2; in that of TASI, at most 0.2; in that of YWAT, at most 0.2.
Regarding REDH, the “one-hybrid fitness for binding parS DNA” value was at most 0.2.
In the case of IVQC it was at most 0.2; in that of GVVP, at most 0.2; in that of FYAW, at most 0.2.
As to QCFI, the “one-hybrid fitness for binding parS DNA” value was at most 0.2.
In the case of STYM it was at most 0.2; in that of AGVG, at most 0.2; in that of CPGS, at most 0.2.
In the case of RWFK it was at most 0.2; in that of PTEC, at most 0.2; in that of PVMR, at most 0.2.
For NPIR, the “one-hybrid fitness for binding parS DNA” value was at most 0.2.
For VWWS, the “one-hybrid fitness for binding parS DNA” value is at most 0.2.
As for NETC, the “one-hybrid fitness for binding parS DNA” value was at most 0.2.
As to VHMC, the “one-hybrid fitness for binding parS DNA” value was at most 0.2.
In the case of RNIK it was at most 0.2; in that of DDQT, at most 0.2.
In the case of SGGA, the “one-hybrid fitness for binding parS DNA” value is at most 0.2.
In the case of PVWR it was at most 0.2; in that of AKVS, at most 0.2; in that of YPHL, at most 0.2.
Regarding EWRS, the “one-hybrid fitness for binding parS DNA” value was at most 0.2.
In the case of CAFG it was at most 0.2; in that of AGAL, at most 0.2.
Take PQKR: the “one-hybrid fitness for binding parS DNA” value was at most 0.2.
In the case of VWLS it was at most 0.2.
In the case of VDEL it was 0.3; in that of WLHT, at most 0.2; in that of NIMR, at most 0.2.
In the case of LLMC it was at most 0.2; in that of HPCP, at most 0.2.
As to SMKF, the “one-hybrid fitness for binding parS DNA” value is at most 0.2.
Consider NIRG, for which the “one-hybrid fitness for binding parS DNA” value is at most 0.2.
In the case of WCTG it was at most 0.2.
In the case of SQKY it was at most 0.2.
